# Assay results taken from PubChem BioAssay AID1508623 (National Center for Advancing Translational Sciences (NCATS), 2021).
# In all, about 48,000 compounds went through this assay and about 450 (0.94%) were called active. Another 19% or so got no clear call; they are omitted. Calls follow the shape of the dose curve; as a rule, active = well fitted inhibition curve with a large enough effect; inconclusive = small, poorly fitted or top-dose-only effect; inactive = no such curve, though single readings can be large or run the other way. The list shows a part of the results.
# Test: Primary qHTS for Identification of Small Molecule Inhibitors of Huntingtin Promoter Activity; also: nearly all actives have a fitted effect of over 50% in size
# Conditions: HEK293 HTT promoter firefly luciferase reporter (activity 0% = vehicle and -100% = no light), 24 h; series mostly up to 57.5 µM; activity change, negative = inhibition: at the top concentration
# Outline: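 Quantitative HTS used concentration series of up to 57.5 uM final on HEK293 luciferase reporter cells, 24 h at 37 degrees C. Readout was Dual-Glo firefly luminescence.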
# Potency is read from the fitted curve at half-maximal effect.
Structure (SMILES),"activity change, negative = inhibition",Potency
CCCCN(CCCC)CCNC(=O)c1cn(CC)c2ccc(S(=O)(=O)N3CCc4ccccc4C3)cc2c1=O,inactive: -23.3%,
CCCN(CCC)CCNC(=O)CN1C(=O)COc2ccc(S(=O)(=O)N3CCC(C)CC3)cc21,inactive: -7.76%,
CCOC(=O)Cn1nc(-c2ccccc2)c2cnc3ccc(OCC)cc3c21,inactive: -15.7%,
Cc1oc(-c2cccc(Cl)c2)nc1CN1CCC(C(=O)NCCCN2CCN(c3ccccc3F)CC2)CC1,inactive: -31.9%,
CCOC(=O)CSc1nc2c([nH]c3ccccc32)c(=O)n1-c1ccc(OC)cc1,inactive: -5.24%,
O=C(CN(CCc1ccccc1)S(=O)(=O)c1ccc(Br)cc1)NCc1ccc(Cl)cc1,inactive: -20.2% [at 11.5 µM],
CCC1CN(C(=O)C2CCN(S(=O)(=O)c3c(C)noc3/C=C/c3ccccc3F)CC2)c2cc(Cl)ccc2O1 (stereo not drawn),inactive: -18.4%,
COc1ccc(N(Cc2cccs2)C(=O)c2ccc(Br)o2)cc1,inactive: -25.8%,
CCc1ccc(NC(=O)CSC2=Nc3ccccc3C3=NC(CC(=O)NC4CCCCC4)C(=O)N23)cc1 (stereo not drawn),inactive: 11.1%,
Cc1ccc2c(=O)cc(C(=O)Nc3ccc(S(=O)(=O)Nc4nc(C)cc(C)n4)cc3)oc2c1,inactive: 5.24% [at 11.5 µM],
CCCOC(=O)c1ccccc1,inactive: -3.82%,
CCOc1cc(C2C(C(=O)Nc3ccc(OC)cc3)=C(C)Nc3nc(SC)nn32)ccc1O (stereo not drawn),inactive: -31.9%,
CCC(Sc1ncnc2sc3c(c12)CCCC3)C(=O)OC(C)C (stereo not drawn),inactive: -12.3%,
CCCC(=O)N1CC(=O)Nc2ccc(Cl)cc2C1c1ccccc1 (stereo not drawn),inactive: -25.3%,
O=C(c1ccco1)n1nc(-c2ccc(Cl)cc2)nc1NCc1ccccc1,inactive: 30.3%,
Cc1ccc(N2C(=O)NC(NS(=O)(=O)c3ccc(Cl)cc3)(C(F)(F)F)C2=O)cc1C (stereo not drawn),inactive: -28.5%,
CCc1ccc(NC(=O)Cn2c(=O)n(Cc3nc(-c4ccccc4)no3)c(=O)c3cc4c(cc32)OCO4)cc1,inactive: -3.36%,
Cc1cccc(C(=O)Nc2ccc(C(=O)OCc3cc(=O)n4nc(C5CC5)sc4n3)cc2)c1,inactive: -21.1%,
COc1ccccc1N1CCN(C(=O)CCc2nnc3n(C)c(=O)c4sccc4n23)CC1,inactive: -7.55%,
COc1ccc(S(=O)(=O)NCC(c2ccc(N(C)C)cc2)N2CCc3ccccc32)cc1 (stereo not drawn),inactive: -16.5%,
COCCNC(=O)CSc1cn(CC(=O)N2CCCCCC2)c2ccccc12,inactive: -16.9%,
CSc1ccc(CCNC(=O)Cn2ncc3c(=O)oc4ccccc4c32)cc1,inactive: -12.7%,
CCOc1ccc(OCC)c(NC(=O)C2CCN(S(=O)(=O)c3cn(C)cn3)CC2)c1,inactive: 2.11%,
Cc1ccc(C)c(CSc2ccc3nnc(CCNS(=O)(=O)c4ccccc4)n3n2)c1,inactive: -12.4%,

Structure (SMILES),"activity change, negative = inhibition",Potency
Cc1ccn2c(Nc3ccc(F)cc3)c(-c3ccccn3)nc2c1,inactive: 2.08%,
O=C(Cn1nc(-c2ccccc2)nc(Cc2ccccc2)c1=O)Nc1ccccc1,inactive: -19.5%,
CCCCC(=O)OC1=C(C(C)=O)N(Cc2ccccc2)S(=O)(=O)c2ccccc21,inactive: -24.6%,
O=C(NCCc1nc2ccccc2n1Cc1ccccc1)c1ccco1,inactive: -9.1%,
CCN(CC)CCNC(=O)C1CCN(c2cc(C)nc3c(-c4ccc(Cl)cc4)c(C)nn23)CC1,inactive: -9.57%,
Cc1ccc(NS(=O)(=O)c2cnc(N)nc2)c(C)c1,inactive: 0.249%,
CCc1nn(CC(=O)Nc2cc(C)cc(C)c2)c(=O)c2cc3sccc3n12,inactive: -19.4%,
Cc1nc(-n2nc(C)c(Cc3ccc4c(c3)OCO4)c2C)sc1C(=O)Nc1cccc(Cl)c1,inactive: -5.2%,
Cc1ccc(CN2CCCn3nc(C(=O)NCc4ccc(OC(C)C)cc4)cc3C2=O)cc1,,active: 17.8 µM
CSc1cccc(NC(=O)CC(c2cccs2)N2Cc3ccccc3C2=O)c1 (stereo not drawn),inactive: -28.4%,
COc1cc(-c2noc(CN3CCN(c4cccc(Cl)c4)CC3)n2)cc(OC)c1OC,inactive: -20.8%,
Cc1ccc(NC(=O)CSc2n[nH]c(-c3ccc(F)cc3)n2)cc1F,inactive: -8.33%,
O=Cc1ccccc1C=O,inactive: 3.92%,
COc1ccc2nc(NC(=O)c3nc(S(=O)(=O)Cc4ccccc4)ncc3Cl)sc2c1,inactive: -29.5%,
CSc1ccc(CCNC(=O)CCc2c(C)nc3c(c(C)nn3-c3ccc(C)c(C)c3)c2C)cc1,inactive: 8.6%,
CCOC(=O)c1cccc(NC(=O)c2ccc3nc(C(C)C)oc3c2)c1,inactive: -23.1%,
O=C(Nc1cccc(Cl)c1Cl)c1cc2nc(-c3ccc(Cl)cc3)cc(C(F)(F)F)n2n1,inactive: -12.6% [at 11.5 µM],
CCC(C(=O)Nc1nnc2n1CCS2)c1ccccc1 (stereo not drawn),inactive: -7.79%,
COc1ccc(Cn2c(=O)n(-c3ccccc3C)c(=O)c3c4c(sc32)CN(C(C)=O)CC4)cc1,inactive: -23%,
CCCN(CCC)CCNC(=O)c1cc2c(-c3ccc(Cl)cc3)nn(C)c2s1,inactive: -18%,
COc1ccc(NC(=O)N2CCc3c(sc4c3CCCC4)C2c2ccccc2OC)cc1 (stereo not drawn),inactive: -6.04%,
CC(C)CC(=O)Nc1ccc2nc(SCC(=O)N3CCCC3)sc2c1,inactive: 3.68%,
Cc1ccc(NC(=O)CCn2nc(C)c(S(=O)(=O)N3CCCCC3)c2C)cc1Cl,inactive: -31.8%,
CCOc1ccc(N(CC(=O)Nc2cc(C)ccc2C)S(=O)(=O)c2c(C)[nH]c(=O)[nH]c2=O)cc1,inactive: -15.5% [at 11.5 µM],

Structure (SMILES),"activity change, negative = inhibition",Potency
CCOC(=O)c1c(C)sc(-c2c(-c3cc(C)ccc3C)[nH]c3c2c(=O)n(C)c(=O)n3C)c1O,inactive: -13.7%,
CCN(c1ccc(C)cc1)S(=O)(=O)c1nnc(NC(=O)C2CCCCC2)s1,inactive: 9.59%,
Cc1ccc(C)c(CN2C(=O)c3ccccc3S(=O)(=O)c3ccc(C(=O)N4CCc5ccccc54)cc32)c1,inactive: -13.7%,
CCCNC(=O)CSc1nc2ccccc2nc1Cc1ccc(Cl)cc1,inactive: -8.12%,
CCn1c(CNC(=O)c2ccc(OC)cc2)nnc1SCC(=O)Nc1ccccc1,inactive: -6.46%,
COC(=O)c1ccc(NC(=O)CCc2c(C)nc3c(-c4ccccc4)c(C)nn3c2C)cc1,inactive: -27.2%,
COc1ccc(-n2c(C)c(C(C)=O)c3cc(OC(=O)c4ccc(C)cc4)ccc32)cc1,inactive: -1.66%,
CCOC(=O)c1ccc(OCC2c3cc(OC)c(OC)cc3CCN2C(=O)c2ccc(S(=O)(=O)N3CCCC3)cc2)cc1 (stereo not drawn),inactive: -14.3%,
Cc1ccc(CCNC(=O)c2cn(C)c3ccc(S(=O)(=O)N(C)C4CCCCC4)cc3c2=O)cc1,inactive: 1.45%,
Cc1ccc(Cn2cc(C(=O)c3ccc(F)cc3)c(=O)c3cc4c(cc32)OCO4)cc1,inactive: -24%,
COc1ccc(CNS(=O)(=O)c2cc3c(cc2C)N(C)CCO3)cc1,inactive: -26.9%,
CCOC(=O)Cn1c(=O)n(CC2CCCO2)c2nc(-c3ccccc3F)nc(C(N)=O)c21 (stereo not drawn),inactive: -15%,
Cc1cccc(NC(=O)c2cc(S(=O)(=O)NCc3ccc4c(c3)OCO4)ccc2F)c1C,inactive: -29.3%,
COc1ccccc1-n1c(=O)c2c3c(sc2n(C)c1=O)CN(C(C)=O)CC3,inactive: -1.68%,
CCOC(=O)Cc1ccc(NC(=O)Nc2ccccc2OCc2cc(=O)n3ccccc3n2)cc1,inactive: 7.5%,
CCn1nnc2cc(C(=O)Nc3cccc(Cl)c3C)ccc21,inactive: 17.8%,
COc1ccc(Cn2c(CNS(=O)(=O)c3ccc(C)c(C)c3)nc3cccnc32)cc1,inactive: 0.64%,
COc1ccc(-c2nc3scc(CCNS(=O)(=O)c4ccccc4F)n3n2)cc1,inactive: -24.3%,
CCN1CCN(c2ncnc3c2cnn3-c2ccc(C)c(Cl)c2)CC1,inactive: 29%,
COc1ccc(-c2noc(-c3ccc(N4CCCC4)c([N+](=O)[O-])c3)n2)cc1,inactive: -20.8%,
O=C(CCS(=O)(=O)c1nc(-c2ccc3c(c2)OCO3)cc(C(F)(F)F)n1)Nc1ccccc1F,inactive: 5.67%,
CCN(C(=O)CCn1cnc2onc(-c3ccc(F)cc3)c2c1=O)c1ccc(OC)cc1,inactive: -19.2%,
COc1ccc(Nc2nc3ccccc3c3nnc(C)n23)cc1Cl,inactive: 2.25%,
CCc1cccc(-n2nnc(-c3nc(-c4ccccc4Cl)no3)c2N)c1,inactive: 0.65%,

Structure (SMILES),"activity change, negative = inhibition",Potency
Cc1ccc(NC(=O)CSc2cn(CC(=O)N3CCCCCC3)c3ccccc23)cc1,inactive: -22%,
CCCCCCCCCCCCCCCCCCOCC(O)CO (stereo not drawn),inactive: 17%,
Cc1cccc(N2CCN(C(=O)c3cnn(-c4cccc(Cl)c4C)c3C3CCNCC3)CC2)c1C,inactive: -13.1%,
CN1Cc2cc(C(=O)N3CCC(C4CCNCC4)CC3)ccc2NC(CC(=O)O)C1=O (stereo not drawn),inactive: 0.326%,
Cn1nnc2c(NCCc3ccccc3)ncnc21,inactive: -9%,
CC(C)c1ccc(NC(=O)c2cccc3c2C(=O)N(C2CCCCC2)C3)cc1,inactive: -16.9%,
CCCc1nc2ccccc2n2c(-c3ccc(C)cc3)c3c(=O)n(C)c(=O)n(C)c3c12,inactive: -5.24% [at 11.5 µM],
Cc1ccc2c(c1)N(CC(=O)NCc1ccccc1Br)C(=O)c1cccnc1O2,inactive: -2.38%,
CCOCCCNC(=O)C(c1ccc(C)cc1)N(Cc1cccs1)C(=O)c1ccc(NC(C)=O)cc1 (stereo not drawn),inactive: -13%,
C[N+]1(C)CCC(OC(=O)C(O)(c2ccccc2)C2CCCC2)C1 (stereo not drawn),inactive: -3.9%,
C[N+](C)(CCOc1ccccc1)Cc1cccs1,inactive: 5%,
COc1ccccc1NC(=O)c1c(NC(=O)c2ccco2)sc2c1CCC(C(C)(C)C)C2 (stereo not drawn),inactive: -9.32%,
CCSc1ncc(Cl)c(C(=O)Nc2c(C(=O)c3ccc(C)c(F)c3)oc3ccccc23)n1,inactive: 1.11%,
COc1ccc(N2CC(NC(=O)c3cc4ccccc4o3)CC2=O)cc1OC (stereo not drawn),inactive: -20.1%,
COc1cc(/C=C(\C#N)C(=O)Nc2ccc(C)cc2)ccc1OCc1cc(=O)n2nc(C)sc2n1,inactive: -4.69%,
Cc1ccc(NC(=O)Cn2c(=O)n(CCc3ccccc3)c(=O)c3c4c(sc32)CCCC4)c(C)c1,inactive: 1.08%,
O=c1oc2ccc(Br)cc2cc1-c1csc(-c2ccccc2)n1,inactive: 8.3%,
CCOC(=O)c1cc(NC(=O)c2ccc(C)cc2)c(=O)n2c1oc1ccc(Cl)cc12,inactive: -11.6%,
COC(=O)c1ccc(NC(=O)c2cc(=O)c3ccc(C)cc3o2)cc1,inactive: 1.58% [at 11.5 µM],
C=C1C[C@@]2(O)O[C@@]3(C[C@H]2C(C)C)[C@H](C)CC[C@H]13,inactive: -1.68%,
CN(C(=O)C1=CC(c2ccc3c(c2)OCO3)=NS(=O)(=O)N1C)c1ccccc1,inactive: -15.6%,
